The supplement of paper PMC8728848
This is one part of the list.

Experiments:
Assay in all cases: glycan array binding signal (z-score within array); higher = stronger binding
Conditions in all cases: glycan notation: IUPAC condensed, linker removed
[1] = biological target: GlcNAc(b1-3)Gal(b1-4)GlcNAc(b1-3)Gal(b1-4)GlcNAc(b1-2)Man(a1-3)[GlcNAc(b1-3)Gal(b1-4)GlcNAc(b1-3)Gal(b1-4)GlcNAc(b1-2)Man(a1-6)]Man(b1-4)GlcNAc(b1-4)[Fuc(a1-6)]GlcNAc
Outline: (§1)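 Glycan array data came from 3228 arrays in the Consortium for Functional Glycomics database, and only arrays with an available protein sequence were kept. Glycan names were put into IUPAC-condensed notation, and columns mapping to the same glycan were averaged. The binding signal is a within-array Z-score, averaged across arrays of one protein sequence run at different concentrations or buffers and across linkers. A negative Z-score can be read as non-binding.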

[2] = biological target: GlcNAc(b1-3)Gal(b1-4)GlcNAc(b1-3)Gal(b1-4)GlcNAc(b1-2)[GlcNAc(b1-3)Gal(b1-4)GlcNAc(b1-3)Gal(b1-4)GlcNAc(b1-6)]Man(a1-6)[GlcNAc(b1-3)Gal(b1-4)GlcNAc(b1-3)Gal(b1-4)GlcNAc(b1-2)Man(a1-3)]Man(b1-4)GlcNAc(b1-4)[Fuc(a1-6)]GlcNAc
Outline: as §1

[3] = biological target: GlcNAc(b1-3)Gal(b1-4)GlcNAc(b1-3)Gal(b1-4)GlcNAc(b1-3)Gal(b1-4)GlcNAc(b1-2)Man(a1-3)[GlcNAc(b1-3)Gal(b1-4)GlcNAc(b1-3)Gal(b1-4)GlcNAc(b1-3)Gal(b1-4)GlcNAc(b1-2)Man(a1-6)]Man(b1-4)GlcNAc(b1-4)GlcNAc
Outline: as §1

[4] = biological target: GlcNAc(b1-3)Gal(b1-4)GlcNAc(b1-3)Gal(b1-4)GlcNAc(b1-3)Gal(b1-4)GlcNAc(b1-2)Man(a1-3)[GlcNAc(b1-3)Gal(b1-4)GlcNAc(b1-3)Gal(b1-4)GlcNAc(b1-3)Gal(b1-4)GlcNAc(b1-2)Man(a1-6)]Man(b1-4)GlcNAc(b1-4)[Fuc(a1-6)]GlcNAc
Outline: as §1

[5] = biological target: GlcNAc(b1-3)Gal(b1-4)GlcNAc(b1-3)Gal(b1-4)GlcNAc(b1-3)Gal(b1-4)GlcNAc(b1-2)[GlcNAc(b1-3)Gal(b1-4)GlcNAc(b1-3)Gal(b1-4)GlcNAc(b1-3)Gal(b1-4)GlcNAc(b1-6)]Man(a1-6)[GlcNAc(b1-3)Gal(b1-4)GlcNAc(b1-3)Gal(b1-4)GlcNAc(b1-3)Gal(b1-4)GlcNAc(b1-2)Man(a1-3)]Man(b1-4)GlcNAc(b1-4)[Fuc(a1-6)]GlcNAc
Outline: as §1

[6] = biological target: GlcNAc(b1-3)Gal(b1-4)GlcNAc(b1-3)Gal(b1-4)GlcNAc(b1-3)Gal(b1-4)GlcNAc(b1-3)Gal(b1-4)GlcNAc(b1-2)Man(a1-3)[GlcNAc(b1-3)Gal(b1-4)GlcNAc(b1-3)Gal(b1-4)GlcNAc(b1-3)Gal(b1-4)GlcNAc(b1-3)Gal(b1-4)GlcNAc(b1-2)Man(a1-6)]Man(b1-4)GlcNAc(b1-4)GlcNAc
Outline: as §1

[7] = biological target: GlcNAc(b1-3)Gal(b1-4)GlcNAc(b1-3)Gal(b1-4)GlcNAc(b1-3)Gal(b1-4)GlcNAc(b1-3)Gal(b1-4)GlcNAc(b1-2)Man(a1-3)[GlcNAc(b1-3)Gal(b1-4)GlcNAc(b1-3)Gal(b1-4)GlcNAc(b1-3)Gal(b1-4)GlcNAc(b1-3)Gal(b1-4)GlcNAc(b1-2)Man(a1-6)]Man(b1-4)GlcNAc(b1-4)[Fuc(a1-6)]GlcNAc
Outline: as §1

[8] = biological target: GlcNAc(b1-3)Gal(b1-4)GlcNAc(b1-3)Gal(b1-4)GlcNAc(b1-3)Gal(b1-4)GlcNAc(b1-3)Gal(b1-4)GlcNAc(b1-2)[GlcNAc(b1-3)Gal(b1-4)GlcNAc(b1-3)Gal(b1-4)GlcNAc(b1-3)Gal(b1-4)GlcNAc(b1-3)Gal(b1-4)GlcNAc(b1-6)]Man(a1-6)[GlcNAc(b1-3)Gal(b1-4)GlcNAc(b1-3)Gal(b1-4)GlcNAc(b1-3)Gal(b1-4)GlcNAc(b1-3)Gal(b1-4)GlcNAc(b1-2)Man(a1-3)]Man(b1-4)GlcNAc(b1-4)[Fuc(a1-6)]GlcNAc
Outline: as §1

[9] = biological target: GlcNAc(b1-3)Gal(b1-4)GlcNAc(b1-3)Gal(b1-4)GlcNAc(b1-3)GalNAc
Outline: as §1

[10] = biological target: GlcNAc(b1-3)Gal(b1-4)GlcNAc(b1-3)GalNAc
Outline: as §1

[11] = biological target: GlcNAc(b1-3)Gal(b1-4)GlcNAc(b1-3)[GlcNAc(b1-3)Gal(b1-4)GlcNAc(b1-3)]GalNAc
Outline: as §1

[12] = biological target: GlcNAc(b1-3)Gal(b1-4)GlcNAc(b1-6)[Gal(b1-3)]GalNAc
Outline: as §1

[13] = biological target: GlcNAc(b1-3)Gal(b1-4)GlcNAc(b1-6)[GlcNAc(b1-3)Gal(b1-3)]GalNAc
Outline: as §1

[14] = biological target: GlcNAc(b1-3)Gal(b1-4)GlcNAc(b1-6)[GlcNAc(b1-3)]Gal(b1-4)GlcNAc
Outline: as §1

GlcNAc(b1-3)GalNAc = biological target: GlcNAc(b1-3)GalNAc
Outline: as §1

GlcNAc(b1-3)Man = biological target: GlcNAc(b1-3)Man
Outline: as §1

[15] = biological target: GlcNAc(b1-3)[GlcNAc(b1-4)][GlcNAc(b1-6)]GlcNAc
Outline: as §1

[16] = biological target: GlcNAc(b1-3)[GlcNAc(b1-6)]Gal(b1-4)GlcNAc
Outline: as §1

[17] = biological target: GlcNAc(b1-3)[GlcNAc(b1-6)]GalNAc
Outline: as §1

[18] = biological target: GlcNAc(b1-4)Gal(b1-4)GlcNAc
Outline: as §1

GlcNAc(b1-4)GlcNAc = biological target: GlcNAc(b1-4)GlcNAc
Outline: as §1

[19] = biological target: GlcNAc(b1-4)GlcNAc(b1-4)GlcNAc
Outline: as §1

[20] = biological target: GlcNAc(b1-4)GlcNAc(b1-4)GlcNAc(b1-4)GlcNAc(b1-4)GlcNAc
Outline: as §1

B1: CLECb-Precomplexed (Mus musculus), P43025 (protein)
chain: MAKNGLVLCILVVSLLLDQTDGYPSRMKARKHSKRRVKAKDDDLKSQVEKLWREVNALKEMQALQTVCLRGTKVHKKCYLASEGLKHYHEANEDCISKGGTLVVPRNSDEINALRDYGKRSLPGVNDFWLGINDMVTEGKFLDVHGFAVSFLNWDRAQPSGGKRENCVLFSQSAQGKWSDEACRSSKRYICEFIIPTRTRPLEQKLISEEDLAANDILDYKDDDDKV
Q: B1 was tested. Which “glycan array binding signal (z-score)” value [1] did it give?
A: The value was -0.475.

Q: And the “glycan array binding signal (z-score)” value [2]?
A: Its value is 0.197.

Q: And the “glycan array binding signal (z-score)” value [3]?
A: The value was -0.368.

Q: And the “glycan array binding signal (z-score)” value [4]?
A: The value was -0.255.

Q: And the “glycan array binding signal (z-score)” value [5]?
A: Its value is -0.48.

Q: And the “glycan array binding signal (z-score)” value [6]?
A: The value was -0.166.

Q: And the “glycan array binding signal (z-score)” value [7]?
A: The value was 0.081.

Q: What about the “glycan array binding signal (z-score)” value [8] of the same binder?
A: Its value is -0.057.

Q: And the “glycan array binding signal (z-score)” value [9]?
A: Its value is -0.408.

Q: What about the “glycan array binding signal (z-score)” value [10] of the same binder?
A: Its value is 0.019.

Q: And the “glycan array binding signal (z-score)” value [11]?
A: The value was -0.334.

Q: And the “glycan array binding signal (z-score)” value [12]?
A: Its value is -0.309.

Q: And the “glycan array binding signal (z-score)” value [13]?
A: Its value is 0.208.

Q: And the “glycan array binding signal (z-score)” value [14]?
A: Its value is -0.024.

Q: What about the “glycan array binding signal (z-score)” value (GlcNAc(b1-3)GalNAc) of the same binder?
A: Its value is -0.282.

Q: And the “glycan array binding signal (z-score)” value (GlcNAc(b1-3)Man)?
A: Its value is -0.185.

Q: And the “glycan array binding signal (z-score)” value [15]?
A: The value was -0.456.

Q: And the “glycan array binding signal (z-score)” value [16]?
A: The value was -0.296.

Q: And the “glycan array binding signal (z-score)” value [17]?
A: The value was -0.173.

Q: What about the “glycan array binding signal (z-score)” value [18] of the same binder?
A: Its value is -0.159.

Q: And the “glycan array binding signal (z-score)” value (GlcNAc(b1-4)GlcNAc)?
A: The value was -0.072.

Q: What about the “glycan array binding signal (z-score)” value [19] of the same binder?
A: The value was -0.15.

Q: And the “glycan array binding signal (z-score)” value [20]?
A: Its value is -0.326.
